Assay results as given in PubChem BioAssay AID1347165 (National Center for Advancing Translational Sciences (NCATS), 2019).
About 5,700 (2.6%) of roughly 220,000 compounds were called active. Inconclusive means that the source gave no clear call. Such entries were picked first, then a sample of the others. Calls come from the whole dose curve; as a rule, active = well fitted inhibition curve with a large enough effect; inconclusive = small, poorly fitted or top-dose-only effect; inactive = no such curve, though single readings can be large or run the other way. Potencies beside an inconclusive call are fits to weak or partial responses and may not hold up.

The compounds below were run against Lysine-specific demethylase 5B (Homo sapiens) (UniProt Q9UGL1) (assay: Primary screen for KDM5B Histone Demethylases FDH-coupled qHTS). Conditions: FDH-coupled NADH fluorescence (FDH is formaldehyde dehydrogenase); series mostly up to 57.7 µM.
Chain of UniProt Q9UGL1 (Q9UGL1 whole entry, looked up): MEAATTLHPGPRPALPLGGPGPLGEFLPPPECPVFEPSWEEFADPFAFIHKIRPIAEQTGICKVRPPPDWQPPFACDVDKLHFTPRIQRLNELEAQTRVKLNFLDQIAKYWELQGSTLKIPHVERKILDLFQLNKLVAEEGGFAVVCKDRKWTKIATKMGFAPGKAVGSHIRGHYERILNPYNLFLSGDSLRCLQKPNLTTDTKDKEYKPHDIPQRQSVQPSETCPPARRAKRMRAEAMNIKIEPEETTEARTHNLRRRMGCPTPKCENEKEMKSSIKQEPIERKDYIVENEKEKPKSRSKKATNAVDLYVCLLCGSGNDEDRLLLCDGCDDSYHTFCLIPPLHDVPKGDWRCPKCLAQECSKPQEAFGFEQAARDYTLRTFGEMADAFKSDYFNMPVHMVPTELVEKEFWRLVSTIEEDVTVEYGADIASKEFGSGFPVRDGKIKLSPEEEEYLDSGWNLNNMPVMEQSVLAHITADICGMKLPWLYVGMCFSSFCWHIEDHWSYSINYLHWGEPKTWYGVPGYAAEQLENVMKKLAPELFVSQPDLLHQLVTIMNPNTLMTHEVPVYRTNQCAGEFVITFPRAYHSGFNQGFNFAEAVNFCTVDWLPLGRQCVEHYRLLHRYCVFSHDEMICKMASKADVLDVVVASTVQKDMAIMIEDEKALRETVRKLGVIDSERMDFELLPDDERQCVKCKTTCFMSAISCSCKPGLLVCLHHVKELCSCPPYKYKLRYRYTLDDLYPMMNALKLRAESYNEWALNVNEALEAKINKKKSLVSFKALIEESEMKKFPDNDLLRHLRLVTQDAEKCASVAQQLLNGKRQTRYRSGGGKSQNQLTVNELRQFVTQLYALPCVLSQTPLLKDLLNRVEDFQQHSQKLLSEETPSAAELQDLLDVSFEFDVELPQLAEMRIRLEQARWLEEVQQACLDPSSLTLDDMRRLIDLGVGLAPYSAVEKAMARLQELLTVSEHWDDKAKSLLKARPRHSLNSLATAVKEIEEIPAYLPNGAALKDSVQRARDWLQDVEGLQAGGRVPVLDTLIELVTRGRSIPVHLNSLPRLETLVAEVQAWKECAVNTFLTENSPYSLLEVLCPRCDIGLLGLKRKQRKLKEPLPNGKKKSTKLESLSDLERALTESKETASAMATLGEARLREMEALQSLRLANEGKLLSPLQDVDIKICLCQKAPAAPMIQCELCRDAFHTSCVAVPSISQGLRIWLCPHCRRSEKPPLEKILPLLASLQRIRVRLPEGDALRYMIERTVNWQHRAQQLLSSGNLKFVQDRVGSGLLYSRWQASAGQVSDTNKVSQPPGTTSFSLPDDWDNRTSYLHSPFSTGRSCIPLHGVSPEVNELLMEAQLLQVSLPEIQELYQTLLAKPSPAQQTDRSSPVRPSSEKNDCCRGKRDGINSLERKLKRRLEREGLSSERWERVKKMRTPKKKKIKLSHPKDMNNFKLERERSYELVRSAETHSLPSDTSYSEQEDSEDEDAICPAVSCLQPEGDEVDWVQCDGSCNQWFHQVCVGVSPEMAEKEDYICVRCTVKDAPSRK
Outline: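 qHTS format, multiple compound concentrations. Buffer 50 mM HEPES pH 7.5/0.01% Tween-20; 200 nM KDM5BΔAP final; 10 min compound preincubation; substrate-mix levels 12.5 µM peptide, 25 µM α-KG, 0.25 mM NAD⁺; 30 min RT; ΔRFU.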
Note: nearly all actives have a fitted effect of over 70% in size.
Potency is the fitted concentration of half-maximal effect; tags give direction and shape of the fitted curve.

Question: With `COC(=O)c1ccoc1COC(=O)c1ccc2c(c1)CCCC2` as the compound, how does the Potency read?
Answer: inactive

Question: How did the Potency turn out when `Cc1ccc(NC(=O)CSc2nc(C)c(C)n2C2CCCC2)cc1S(=O)(=O)N1CCOCC1` was run?
Answer: inactive

Question: How did the Potency turn out when `Cn1ccnc1C(=O)N1CCC(N2C(=O)C3(CCCCC3)C2c2ccncc2)CC1` (centres undefined) was run?
Answer: inactive

Question: Which Potency does the source give for `Cc1ccc(C2Cn3nnc(-c4noc(-c5ccc6c(c5)OCO6)n4)c3CO2)cc1` (centres undefined) here?
Answer: inconclusive: 3.16 µM [inhibitor, partial curve, poor fit]

Question: `CS(=O)(=O)N1CCc2nc(-c3ccc(Cl)cc3)[nH]c2C1` was tested. Which Potency did it give?
Answer: inconclusive: 28.2 µM [inhibitor, partial curve, poor fit]

Question: Which Potency does the source give for `CC(C)CC(=O)N1CCN(c2nnc3ccccn23)CC1` here?
Answer: active: 28.2 µM

Question: With `CCN1CCN(C(=O)c2ccc(-n3nc(C)c(-c4ccc(F)cc4)c3NC(C)=O)cc2)CC1` as the compound, how does the Potency read?
Answer: inactive

Question: With `O=C(CC(Nc1ccc(Br)cc1)C(=O)O)c1ccccc1` (centres undefined) as the compound, how does the Potency read?
Answer: inconclusive: 10 µM [inhibitor, partial curve, poor fit]

Question: How did the Potency turn out when `CCOC(=O)c1sc(N)cc1C` was run?
Answer: inactive

Question: Which Potency does the source give for `CCc1nn(CCCC(=O)N2CCN(c3cc(Cl)ccc3C)CC2)c(=O)c2cc3occc3n12` here?
Answer: inconclusive: 28.2 µM [inhibitor, partial curve, poor fit]

Question: For `C[S+](=O)([O-])CCn1ncc2cc(OCc3cccc(-c4cccc(O)c4)c3)ccc21`, which Potency is on record?
Answer: inconclusive: 35.5 µM [inhibitor, single point]

Question: How did the Potency turn out when `COc1cccc(Cn2c(=O)c3ccnn3c3ccc(C(=O)NCCCN(C)C)cc32)c1` was run?
Answer: inconclusive: 17.8 µM [inhibitor, single point]

Question: With `COc1ccc(-c2cc(N3CCCC(NC(=O)c4cccc(N(C)C)c4)C3)n[nH]2)cc1` (centres undefined) as the compound, how does the Potency read?
Answer: active: 28.2 µM

Question: `COC(=O)[C@H](CC(C)C)N(Cc1cn(CC2CCCCC2)nn1)S(=O)(=O)c1ccccc1Br` was tested. Which Potency did it give?
Answer: inconclusive: 20 µM [inhibitor, partial curve, poor fit]

Question: `CC(C)CC(=O)Nc1nc2c(s1)CC(C(C)(C)C)CC2` (centres undefined) was tested. Which Potency did it give?
Answer: inconclusive: 0.708 µM [inhibitor, full curve, poor fit]

Question: Which Potency does the source give for `CCc1ccc(C(=O)C(C)OC(=O)c2ccc3c(c2)CCCC3)cc1` (centres undefined) here?
Answer: inactive

Question: With `CNC(=O)CCc1ccnc(N2CCCC2)c1` as the compound, how does the Potency read?
Answer: inconclusive: 20 µM [inhibitor, single point]

Question: `Cc1cc(-c2ccc(C)c(S(=O)(=O)N3CCC(C)CC3)c2)on1` was tested. Which Potency did it give?
Answer: inconclusive: 12.6 µM [inhibitor, partial curve, poor fit]

Question: For `COc1ccccc1/C=C/C=C1\Oc2cc(OC(=O)C(C)(C)C)ccc2C1=O`, which Potency is on record?
Answer: inconclusive: 31.6 µM [inhibitor, single point]
